# Measured values: the supplement of paper PMC12217912
# This is one part of the list. The full chains were built here from the parent and the listed change. Values near 0.05 are background.
# B1: TEV protease; numbered along this chain (parent)
# chain: MGESLFKGPRDYNPISSSICHLTNESDGHTTSLYGIGFGPFIITNKHLFRRNNGTLVVQSLHGVFKVKDTTTLQQHLVDGRDMIIIRMPKDFPPFPQKLKFREPQREERICLVTTNFQTKSMSSMVSDTSCTFPSGDGIFWKHWIQTKDGQCGSPLVSTRDGFIVGIHSASNFTNTNNYFTSVPKNFMELLTNQEAQQWVSGWRLNADSVLWGGHKVFMVKPEEPFQPVKEATQL
# Variants of: B1
# Assay: raw area under fraction-flipped curve 0-4 h after induction (AUC4h, not background-subtracted), DNA-recorder readout of cleavage of the substrate (dimensionless); higher = more cleavage of the substrate by the protease variant
# Conditions: temperature: 34 °C; time window: 0-4 h after rhamnose induction
# Method: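 In vivo DNA recorder in E. coli TOP10(DE3) ΔrhaA at 34 °C. Each TEVp single-site mutant (parent TEVp 0) is paired with a single-site variant of the 7-mer TEVs (canonical ENLYFQ|S). The substrate sits between flexible linkers in a Bxb1-sfGFP-TEVs-SsrA fusion, so cleavage stabilises Bxb1 and speeds flipping of a recombination array, read by NGS. The value is the raw area under the fraction-flipped curve over 0-4 h after rhamnose induction (AUC4h), with ≥20 reads per time point. It is not background-subtracted; inactive controls average about 0.047.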
# 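Further: Bxb1 expression induced with 0.2% (w/v) L-rhamnose at OD600 near 0.5, cultures sampled hourly, flipped fraction per protease–substrate barcode pair counted by paired-end Illumina sequencing.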
Variant,area with substrate ENAYFQS,area with substrate ENDYFQS,area with substrate ENEYFQS,area with substrate ENFYFQS,area with substrate ENHYFQS,area with substrate ENMYFQS,area with substrate ENPYFQS,area with substrate ENQYFQS,area with substrate ENSYFQS,area with substrate ENTYFQS,area with substrate ENVYFQS,area with substrate ENYYFQS,area with substrate ENCYFQS,area with substrate ENGYFQS,area with substrate ENNYFQS,area with substrate ENRYFQS,area with substrate ENIYFQS,area with substrate ENWYFQS,area with substrate ENKYFQS
Q234V,0.076,0.0611,0.0712,0.0692,0.0644,0.0596,0.0422,0.064,0.053,0.0579,0.0778,0.0637,–,–,–,–,–,–,–
L73Q,–,0.0315,0.0509,–,0.043,–,0.056,0.05,0.0581,0.0603,0.0628,–,0.0579,0.0525,0.0627,0.0466,–,–,–
K98N,–,0.0612,0.0505,0.0588,0.0632,0.0858,–,0.0625,0.0615,–,0.0768,0.0782,0.0613,0.0526,–,0.0637,0.12,0.0421,–
K98S,–,0.0647,0.0682,–,0.105,0.0664,0.0464,0.0643,–,0.0736,0.0692,0.0607,0.0754,0.0527,0.0388,0.063,0.104,–,0.0421
D82H,–,0.0314,0.0526,–,0.0579,–,0.0476,0.0761,0.0577,–,0.0752,–,0.0594,0.0629,–,0.0572,–,–,0.0427
M219W,0.0592,0.0575,0.061,0.063,–,–,0.0481,0.0645,0.0535,–,0.0799,0.0632,–,0.0535,0.0614,–,0.116,–,0.0532
R204M,0.0535,0.0665,0.0597,0.046,0.0587,0.0925,0.0545,0.0557,0.0617,0.0637,0.0821,–,0.0651,0.064,0.0627,0.0532,0.105,0.0549,–
R204V,0.0685,0.06,0.0642,–,0.0755,0.085,–,0.0596,0.0635,0.0673,0.084,–,0.0617,0.0637,0.0595,0.0589,–,0.0597,0.0625
R204G,0.0622,0.0675,0.0555,0.0699,0.0526,0.0574,0.062,0.0624,0.0474,–,0.0699,0.0732,0.0617,0.0696,0.0651,0.0623,–,0.0658,–
D11F,–,0.0608,0.0555,0.0756,0.0371,0.079,–,0.0608,–,0.0733,0.0853,0.0393,0.0725,0.0627,0.0669,0.0598,0.175,–,–
F41G,–,–,0.0453,0.038,0.0519,0.0724,0.0552,0.0519,0.0672,0.045,0.0478,0.0518,0.0485,0.0359,0.0558,0.0474,0.0927,0.0403,0.0429
S209D,0.101,–,–,0.0569,–,0.0829,–,–,–,–,–,–,0.0462,0.0711,–,–,–,–,–
L205H,0.0614,0.0639,0.061,0.0497,–,–,–,0.0542,–,0.0614,–,–,–,0.0717,0.0876,–,–,–,0.0588
L99Q,–,0.0571,–,–,–,0.0368,–,–,–,0.0609,–,–,0.072,0.0542,0.0911,–,–,–,0.0533
H76D,–,–,0.0229,0.0591,0.0728,–,0.0631,0.0269,–,0.0448,–,–,0.0545,0.0401,–,0.0675,–,0.0566,0.0502
K221L,0.0493,0.0492,–,–,0.052,0.0627,0.0701,0.0543,0.0519,0.0566,0.0685,0.0644,0.0523,0.0707,0.0608,0.0606,0.124,0.0565,0.132
K221S,0.0622,0.0545,0.0714,0.0815,0.0362,0.0563,0.0502,0.0587,0.0588,0.0859,–,–,–,0.0539,0.0665,0.0499,–,–,0.0619
S4Y,–,0.0555,–,–,–,–,0.0489,0.0566,0.071,–,0.0825,0.0466,0.0359,0.0581,0.0552,–,0.0822,–,0.0616
E231V,0.07,0.0498,0.0362,0.0515,–,–,–,0.0493,0.0755,–,0.0761,0.0539,–,0.0642,0.0617,0.0796,0.107,–,0.066
G214D,0,0.0641,–,0.0564,–,–,0.062,–,0.0848,0.0548,–,0.0518,0.0655,0.0715,0.0614,0.0679,–,–,0.0445
Q97A,–,0.059,0.0595,0.0676,–,0.086,0.0519,0.0524,0.0443,0.0783,0.0741,–,0.0705,0.0581,0.0644,–,–,–,–
Q97H,–,–,0.0575,0.0482,0.0473,0.0867,0.056,0.0602,0.0652,0.0577,–,–,0.0512,–,0.0613,0.0601,–,–,0.0659
P89L,–,0.0463,–,–,0.0421,–,–,–,0.0253,0.0506,–,–,0.0299,–,–,0.034,0.0706,0.0578,0.0676
P89Y,–,0.0617,0.0603,0.0353,0.0554,–,0.0565,0.0298,0.0484,0.0524,–,–,0.0584,0.0538,0.0581,–,0.0925,–,0.0442
L235Q,0.0542,0.0498,–,0.0569,0.0589,–,–,0.0682,–,0.0563,0.084,–,0.0548,0.071,0.078,–,–,–,0.0693
P222I,0.0624,0.0738,0.0661,0.0187,–,–,–,0.0508,0.0592,0.0627,0.0404,–,0.0594,–,–,–,0.0788,–,0.0689
P222A,0.0522,–,0.0587,0.0814,–,0.0608,0.0591,0.0588,0.0637,–,–,0.0547,0.0643,0.0524,–,–,–,–,0.0621
G202R,0.058,0.069,0.0567,–,–,–,0.07,0.052,0.0618,0.0638,0.0646,0.0618,–,0.0648,0.0502,0.0722,0.0708,–,0.0538
